The inconclusive results got no clear call from the source; some entries with a clear call stand among them for comparison. For part of these data: Where the call is inconclusive, the potency comes from a doubtful curve fit. Active and inactive are the calls of the source. Calls come from the whole dose curve; as a rule, active = well fitted curve in the direction sought with a large enough effect; inconclusive = small, poorly fitted or top-dose-only effect, or another doubt; inactive = no such curve, though single readings can be large; an effect the other way counts as inactive or inconclusive.
How the values were obtained:
[1] = Viability qHTS for spleen associated tyrosine kinase inhibitor (SYKi) drug resistant MV4-11 cells (AID 1963824); settings: SYKi-resistant MV4-11 viability, CellTiter-Glo, 72 h; series mostly up to 45 µM; note: nearly all actives have a fitted effect of over 35% in size
Outline: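 SYK inhibitor-resistant MV4-11 AML cells, 500 per well, added to predispensed compounds and incubated 72 hr at 37 C, 5% CO2. Viability measured by CellTiter-Glo luminescence after 10 min at room temperature.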

[2] = Quantitative highthroughput screen to assess conditional lethalithy of NOMO1 cells grown in RPMI1640 with untreated serum (RPMI+s) (AID 1963876); settings: NOMO1 AML cells in RPMI+serum, CellTiter-Glo viability, 48 h; viability: at 45.8 µM (top of the series); note: nearly all actives have a fitted effect of over 35% in size
Outline: (§1)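 Each medium arm—HPLM with 10% dialyzed FBS, or RPMI1640 with 5 mM glucose and 10% untreated or dialyzed FBS—was screened against an 11-point, 3-fold compound titration for 48 h at 37 °C, with CellTiter-Glo luminescence as endpoint.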

[3] = Quantitative highthroughput screen to assess conditional lethalithy of NOMO1 cells grown in RPMI1640 with dialyzed fetal bovine serum (RPMI+ds) (AID 1963877); settings: NOMO1 in RPMI+dialyzed FBS viability, ATP luminescence, 48 h; series mostly up to 45.8 µM; note: nearly all actives have a fitted effect of over 30% in size
Outline: as §1

[4] = Quantitative highthroughput screen to assess conditional lethalithy of NOMO1 cells grown in Human Plasma-Like Medium with dialyzed fetal bovine serum (HPLM+ds) (AID 1963878); settings: NOMO1 AML cells in HPLM+ds, CellTiter-Glo viability, 48 h; viability: at 45.8 µM (top of the series); note: nearly all actives have a fitted effect of over 35% in size
Outline: as §1

[5] = Quantitative highthroughput screen to assess conditional lethalithy of P12 Ichikawa cells grown in Human Plasma-Like Medium with dialyzed fetal bovine serum (HPLM+ds) (AID 1963879); settings: ATP luminescence, 48 h; Potency: viability; series mostly up to 45.8 µM; note: nearly all actives have a fitted effect of over 35% in size
Outline: as §1

[6] = Quantitative highthroughput screen to assess conditional lethalithy of P12 Ichikawa cells grown in RPMI1640 with untreated serum (RPMI+s) (AID 1963881); settings: ATP luminescence, 48 h; Potency: viability; series mostly up to 45.8 µM; note: nearly all actives have a fitted effect of over 35% in size
Outline: as §1

[7] = Quantitative highthroughput screen to assess conditional lethalithy of SEM cells grown in RPMI1640 with unreated serum (RPMI+s) (AID 1963883); settings: SEM B-ALL cells, CellTiter-Glo viability, 48 h; viability: at 45.8 µM (top of the series); note: nearly all actives have a fitted effect of over 35% in size;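 for Viability: 100% = DMSO wells and 0% = empty wells without cells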
Outline: as §1

[8] = Cellular viability qHTS for adrenocortical cancer (ACC) cell line SW-13 (AID 1963989); settings: SW-13 ACC cells viability, CellTiter-Glo, 48 h; activity (max response): stronger effect = lower value; note: nearly all actives have a fitted effect of over 65% in size;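 for activity (max response): cells grown in serum-free medium with ITS supplement; % is set by controls: 0 for no effect and ±100 for the full control effect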
Outline: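 48 h treatment, SW-13 in ITS/DMEM serum-free; doses up to 46 uM; readout CellTiter-Glo luminescence; curve fit four-parameter logistic.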

[9] = Cellular viability qHTS for adrenocortical cancer (ACC) cell line NCI-H295R (AID 1963990); settings: CellTiter-Glo ATP luminescence, 48 h; activity change, negative = viability loss: at 46.1 µM (top of the series); note: nearly all actives have a fitted effect of over 60% in size
Outline: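 Compound titrations (up to 46 uM final) are applied to NCI-H295R cultures for 48 h at 37C. Viable cell number is estimated by CellTiter-Glo signal, normalised to DMSO and doxorubicin controls.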

[10] = Quantitative highthroughput screen to assess conditional lethalithy of SEM cells grown in Human Plasma-Like Medium with dialyzed fetal bovine serum (HPLM+ds) (AID 1963882); settings: SEM B-ALL cells in HPLM+ds, CellTiter-Glo viability, 48 h; series mostly up to 45.8 µM; note: nearly all actives have a fitted effect of over 35% in size
Outline: as §1

[11] = Quantitative highthroughput screen to assess conditional lethalithy of SEM cells grown in RPMI1640 with dialyzed fetal bovine serum (RPMI+ds) (AID 1963884); settings: SEM B-ALL cells, RPMI+dialyzed FBS, CellTiter-Glo viability, 48 h; viability: at 45.8 µM (top of the series); note: nearly all actives have a fitted effect of over 35% in size
Outline: as §1
Potency is the fitted concentration of half-maximal effect; tags give direction and shape of the fitted curve.

COC(=O)C1=COC(OC2OC(CO)C(O)C(O)C2O)C2C(C)C(OC(C)=O)C(OC(=O)c3ccccc3)C12 (centres undefined)
inactive: Potency [1]

CC1(C)C=Cc2c(ccc3c2N=C2C(C)(C)[C@@H]4C[C@]56CCCN5C(=O)[C@@]4(C[C@]23O)NC6=O)O1
inactive: Potency [1]

NC[C@H]1O[C@H](O[C@H]2[C@H](O[C@@H]3O[C@H](CO)[C@@H](O)[C@H]3O)C(O)[C@H](N)C[C@@H]2N)[C@H](N)[C@@H](O)[C@@H]1O (some centres undefined)
inactive: viability, % of control [1] 95.3% [at 9.25 µM]

O=C(O)c1ccncc1Nc1nn(CCN2CCC(F)(F)CC2)c2ccc(F)cc12
inconclusive: Potency [1] 0.0164 µM [cytotoxic, full curve, poor fit]

COc1cnc(NS(=O)(=O)c2ccc(N)cc2)nc1
inconclusive: Potency [2] 20.9 µM [cytotoxic, partial curve] | Potency [3] 18.7 µM [cytotoxic, partial curve] | Potency [4] 18.7 µM [cytotoxic, partial curve] | Potency [5] 18.7 µM [cytotoxic, partial curve] | Potency [6] 20.9 µM [cytotoxic, partial curve] | Potency [9] 5.17 µM [rising, single point]
inactive: Potency [1] | Potency [7] | activity (max response) [8] 10.3%

CSc1ccc(C(=O)N[C@@H]2CCCC[C@@H]2NC(=O)CNC(=O)c2cc(C(F)(F)F)ccc2NC(=O)NC(C)C)cc1
inconclusive: Potency [1] 9.2 µM [cytotoxic, partial curve]

CC(C)[C@H](CO)Nc1nc(Nc2cccc(Cl)c2)c2ncn(C(C)C)c2n1
active: Potency [1] 3.32 µM | Potency [2] 2.09 µM | Potency [3] 2.35 µM | Potency [4] 0.743 µM | Potency [5] 4.18 µM | Potency [6] 8.33 µM | Potency [10] 1.32 µM | Potency [7] 372 nM | Potency [11] 418 nM | Potency [8] 22.4 µM
